According to US20240108591A1, “OR2L13 AGONISTS TO TREAT CVD WITH DY[…] ACTIVATION” (The Cleveland Clinic Foundation, priority 2022, published 2024):

Molecular target: T1, Human OR2L13 (Homo sapiens, UniProt Q8N349)
T1 sequence (Q8N349 1-312): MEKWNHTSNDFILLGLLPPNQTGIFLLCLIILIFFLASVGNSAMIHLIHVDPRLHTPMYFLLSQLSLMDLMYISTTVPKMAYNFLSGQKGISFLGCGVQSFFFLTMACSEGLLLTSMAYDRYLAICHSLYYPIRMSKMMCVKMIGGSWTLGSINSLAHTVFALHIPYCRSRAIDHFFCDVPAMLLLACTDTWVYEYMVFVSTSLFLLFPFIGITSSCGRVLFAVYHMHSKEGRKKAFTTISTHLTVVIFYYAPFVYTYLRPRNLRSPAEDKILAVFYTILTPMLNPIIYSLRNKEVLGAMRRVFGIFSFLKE
Experiment: Odorant screen in OR2L13/RTP1s HEK293 CRE-luciferase reporter cells
Conditions: HEK293 CRE-luciferase cells with OR2L13 and RTP1s; 0-500 μM; forskolin as positive control
From the text: FIG. 4. Characterization of OR2L13 agonists. A. Human OR2L13 cloned in frame with HA (GFP in a secondary cassette, green) and co-expressed with Receptor Transport Protein ls (RTP1s) (mCherry in a secondary cassette, red) stably in HEK293/cAMP cells. Microscopy (left) and Western blotting (right) confirm OR2L13-HA expression. IP=immunoprecipitation. TCL=total cell lysate. OR2L13 ligands stimulate (Golf) and adenyl cyclase produces cAMP B. A cAMP-Response Element (CRE) expressing HEK293 cells with stable integration of OR2L13-HA was utilized to screen for ligands. C. […]
The control and RTP1s/OR2L13 reporter cells were used to perform odorant screening. […] The next day, 20 μL of One-Step Luciferase assay system (BPS Bioscience, San Diego, CA) was added to each plate and luciferase activity was read on a Gen5 plate reader. The ratio or OR2L13 cell line/vector cell line was used to indicate a positive response by way of a CRE reporter readout ratio of>1.0, then a dose response curve was constructed for lead compounds.
Following OR ligation by an external agonist, Golf activates adenylyl cyclase (AC) to hydrolyze cyclic AMP (cAMP) from ATP. […] Using cells expressing only the empty vector as a control, multiple potential olfactory receptor ligands were evaluated.

For `C=C(C)C1CC=C(C)C(=O)C1` (single isomer, unassigned; (-)) [(−) carvone], the “OR2L13 activation, cAMP generation (CRE reporter readout, OR2L13 cell line/vector cell line)” value was “reproducibly activated OR2L13, generating endogenous cAMP in a dose-dependent manner”.
